Whole data set: some 33,000 sequences, median “E-score (-0.5 to 0.5)” near -0.013, cut for the highest 2% near 0.3. This is one part of the list.
Molecular target: T1, Msn1 (UniProt P22148)
T1 sequence: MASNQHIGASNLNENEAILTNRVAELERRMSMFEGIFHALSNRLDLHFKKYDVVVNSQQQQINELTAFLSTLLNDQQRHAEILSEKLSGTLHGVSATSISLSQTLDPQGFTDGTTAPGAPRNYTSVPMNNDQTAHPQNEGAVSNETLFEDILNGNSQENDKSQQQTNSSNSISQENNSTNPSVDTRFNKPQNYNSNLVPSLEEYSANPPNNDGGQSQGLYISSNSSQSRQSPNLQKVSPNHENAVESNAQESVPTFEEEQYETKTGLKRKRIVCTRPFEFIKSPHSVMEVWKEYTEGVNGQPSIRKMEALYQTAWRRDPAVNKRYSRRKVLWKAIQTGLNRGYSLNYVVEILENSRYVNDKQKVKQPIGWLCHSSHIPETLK
Test: PBM E-score (8-mer binding enrichment) (E-score (-0.5 to 0.5)); higher = stronger / more preferred TF binding; most listed sequences are background and not binding sites
Conditions: protein concentration: 200 nM; construct: GST-full length
How it was run: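 E-scores (a modified Wilcoxon-Mann-Whitney statistic) were assigned by the Universal PBM Analysis Suite to every ungapped eight-base word pooled with its reverse complement. The input came from universal all-10-mer Agilent arrays made double-stranded by primer extension and probed with GST-tagged yeast transcription factors at about 100-200 nM. Fluorescent anti-GST detected bound protein, and masliner normalised the scans.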

Sequence | PBM E-score
AAACGAAA | 0.25
CGTTTGAG | 0.0785
CCACACGA | 0.00165
AGATATCA | 0.0525
TGGTATAA | 0.152
GAACTTCC | -0.0268
CATAGCGC | 0.0322
CATAACGC | 0.107
ACTAACCC | -0.0861
GACGGAGA | -0.0925
AGTCATCG | 0.0215
TCGTGTAA | 0.0713
CTGAGAAG | -0.24
ATTGCCCA | -0.0823
TGACGCCA | -0.115
CCTACACC | -0.158
GCCTTAGA | -0.00676
CATATGGA | 0.14
GAGCCGAC | -0.141
CGCCTATA | 0.035
AAATTAAT | 0.199
AGCTCTGC | -0.348
TGTACAAA | 0.392
AGAGTTAG | -0.0948

Sequence | PBM E-score
CTGTATAA | 0.0876
AGCTTGCG | -0.111
AATGTAGA | -0.00408
ATTCATAG | 0.0666
CAATTGGC | 0.124
ACCGAACA | 0.109
CCGGAGCA | 0.0316
GCTTGTAC | 0.267
TCCATTAA | 0.176
GCGCCAGA | -0.123
GTATCCAC | -0.0737
TTAGCAAA | 0.0995
AAAGTGCG | 0.073
GACATAGA | 0.36
TACCGCCA | 0.011
CTCAAAAG | -0.0203
CGTATGCC | -0.0374
ATAGCGCA | -0.137
CGTGTATA | -0.112
ACAATCAT | 0.0881
ATGTCTTG | 0.35
AAGCGAAG | -0.00401
AGTGAATG | 0.00927
TACGATCA | -0.0427

Sequence | PBM E-score
GCGCAAGA | 0.181
GACTCTTA | 0.102
CCCTGAAC | 0.0866
CTCTGAGA | -0.0856
CATCCAGC | -0.172
CCATGGCC | -0.221
AGGCGTCC | -0.0833
GGCGGAAC | -0.0382
GAGCTAGA | -0.214
AACAAAAG | 0.101
AGACCTAT | 0.0787
CCTATTGA | 0.0297
AAGCCCAT | -0.203
AAGGCCAA | -0.2
AACATCAT | -0.0587
CTGCCTTC | -0.116
GCTCACCC | -0.203
CTTACTAA | 0.0341
GATGAGAC | 0.216
CGGGTCAG | 0.0673
CGCGAAAG | -0.0559
CAAAGCTC | -0.224
CCAAACAG | -0.0873
GAGTAGAC | -0.0442

Sequence | PBM E-score
GAGCGCTA | -0.147
AGTGACAT | 0.3
GCCAGGAA | -0.00772
AACGTAGG | -0.224
AACACGTA | 0.0503
GACCGTCC | -0.231
CCATAGAC | 0.037
GTTATCCA | -0.0172
AATTCATA | -0.0103
CCAGTTAA | 0.0896
CTGTTTAC | 0.0108
ACTCTGCC | -0.0152
ACCGAGAA | 0.149
CTCCTAAC | -0.278
ACGCACTG | -0.121
AAAAGACA | 0.342
CATGGAAA | 0.197
ACAGCAGG | -0.0564
AATCATCA | 0.0708
CCCATTAA | -0.00813
CCACGCGG | 0.017
GAGTGGGA | -0.0603
